Only a part is listed here, and it is no random draw. At the low end of the ranking, values are background and their order means little.
molecular target: T1, GST-ANAC092(1-176) (UniProt Q9FKA0); assay: universal protein binding microarray (PBM); conditions: high values mean tight binding; double strand, one strand shown
T1 sequence: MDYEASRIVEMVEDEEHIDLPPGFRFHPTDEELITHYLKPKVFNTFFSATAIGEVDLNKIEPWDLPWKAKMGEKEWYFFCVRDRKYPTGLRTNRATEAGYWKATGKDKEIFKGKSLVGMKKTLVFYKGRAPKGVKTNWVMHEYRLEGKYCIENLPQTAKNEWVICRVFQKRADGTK

Row | Sequence | binding signal [E-score]
1 | CAGGGAAA | 0.141
2 | CACGCATA | 0.397
3 | TTAGTCAA | -0.000125
4 | ATAGTCAA | -0.0769
5 | AAAAAGTC | 0.015
6 | AAGGTCAG | -0.0381
7 | AATGGTCA | -0.0559
8 | TGGCGTAA | 0.44
9 | ATTGGTCA | 0.0884
10 | ACGTCACC | 0.452
11 | ATGTTGAC | -0.196
12 | AAGCAAAG | 0.302
13 | TTACGAAA | 0.396
14 | ACACGGTA | 0.437
15 | TTACGCAA | 0.484

molecular target: GST-NTL6(1-168) (UniProt Q9SCK6); assay: universal protein binding microarray (PBM); conditions: high values mean tight binding; double strand, one strand shown

Row | Sequence | binding signal [E-score]
16 | AGGGAAAT | 0.0669
17 | CAGGGAAA | 0.0693
18 | CACGGAAC | -0.0637
19 | ACGGAACC | -0.0323
20 | AGTTACGC | -0.00341
21 | ATTGACTA | 0.0208
22 | GTAACGTA | -0.013
23 | CTTGACTC | -0.0987
24 | CACGCATA | -0.0977
25 | ATACGCCA | 0.0499
26 | CACGTTAG | -0.0485
27 | GTATTGAC | -0.00534
28 | TTAGTCAA | 0.00528
29 | ATAGTCAA | -0.00351
30 | AAAAAGTC | -0.0367
31 | TGCGTACA | 0.0117
32 | ACGTAACT | 0.174
33 | GATGCGTA | -0.017

Row | Sequence | binding signal [E-score]
34 | AAGGTCAG | 0.0225
35 | ACACACGC | 0.0666
36 | GTTGAGTA | 0.152
37 | TGGCGTAA | -0.0163
38 | CTTGACCA | -0.00901
39 | TACGTAAA | 0.095
40 | ATGCCGTG | -0.153
41 | ATTGGTCA | 0.0425
42 | ACGTCACC | -0.0859
43 | GACGTGTA | -0.0785
44 | ATGTTGAC | 0.00187
45 | AAGCAAAG | 0.342
46 | ACACGGTA | -0.0259
47 | AAGCAATC | 0.324
48 | AAATACGT | 0.0306
49 | TTACGCAA | 0.18
50 | CGTACGCA | 0.0427

molecular target: T2, GST-ANAC019 NAC domain (UniProt Q9C932); assay: universal protein binding microarray (PBM); conditions: high values mean tight binding; double strand, one strand shown
T2 sequence: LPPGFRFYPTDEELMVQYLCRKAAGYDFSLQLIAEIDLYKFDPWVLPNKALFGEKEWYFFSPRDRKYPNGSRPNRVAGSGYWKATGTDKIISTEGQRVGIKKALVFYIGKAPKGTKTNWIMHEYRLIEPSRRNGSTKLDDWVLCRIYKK

Row | Sequence | binding signal [E-score]
51 | CACGGAAC | 0.48
52 | ATTGACTA | -0.0072
53 | CTTGACTC | 0.0423
54 | CACGCATA | 0.0473
55 | ATACGCCA | 0.0435
56 | CACGTTAG | 0.017
57 | GTATTGAC | -0.0278
58 | TTAGTCAA | 0.12
59 | ATAGTCAA | -0.0525
60 | AAAAAGTC | 0.0791
61 | AAGGTCAG | -0.00226
62 | AATGGTCA | -0.117
63 | ACACACGC | 0.169
64 | ATTGGTCA | -0.0749
65 | ATGTTGAC | -0.144
66 | TTACGAAA | 0.248

molecular target: T3, GST-ANAC055(1-171) (UniProt Q9LDY8); assay: universal protein binding microarray (PBM); conditions: high values mean tight binding; double strand, one strand shown
T3 sequence: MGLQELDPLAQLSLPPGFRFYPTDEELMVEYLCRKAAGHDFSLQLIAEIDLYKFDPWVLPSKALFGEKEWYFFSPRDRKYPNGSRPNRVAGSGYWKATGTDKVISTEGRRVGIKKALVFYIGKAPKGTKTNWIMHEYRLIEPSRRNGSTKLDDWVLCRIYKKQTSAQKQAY

Row | Sequence | binding signal [E-score]
67 | AGGGAAAT | 0.0389
68 | CAGGGAAA | 0.0449
69 | AGTTACGC | 0.0766
70 | CTTGACTC | -0.00513
71 | CACGTTAG | 0.0916
72 | TTAGTCAA | -0.0272
73 | GATGCGTA | 0.227
74 | AAGGTCAG | -0.0781
75 | AATGGTCA | -0.0227
76 | ATTGGTCA | -0.07
77 | ACGTCACC | 0.32
78 | ATGTTGAC | -0.0389
79 | CGTACGCA | 0.328

molecular target: T4, GST-ATAF1 NAC domain (UniProt Q39013); assay: universal protein binding microarray (PBM); conditions: high values mean tight binding; double strand, one strand shown
T4 sequence: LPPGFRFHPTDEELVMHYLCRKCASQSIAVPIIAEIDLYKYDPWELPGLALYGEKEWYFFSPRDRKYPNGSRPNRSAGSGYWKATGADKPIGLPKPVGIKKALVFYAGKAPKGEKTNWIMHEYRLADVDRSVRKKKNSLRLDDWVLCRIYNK

Row | Sequence | binding signal [E-score]
80 | CAGGGAAA | -0.0223
81 | ACGGAACC | 0.38
82 | CACGCATA | 0.0454
83 | GTATTGAC | 0.0363
84 | TGCGTACA | 0.272
85 | AAGGTCAG | 0.0646
86 | AATGGTCA | -0.0808
87 | GTTGAGTA | 0.139
88 | ATGCCGTG | 0.35
89 | ATTGGTCA | -0.0277
90 | ACGTCACC | 0.311
91 | GACGTGTA | 0.291
92 | AAATACGT | 0.346

molecular target: T5, GST-ANAC092(1-285) full length (UniProt Q9FKA0); assay: universal protein binding microarray (PBM); conditions: transcription factors of Arabidopsis thaliana; high values mean tight binding; most listed sequences are background and not binding sites; double strand, one strand shown
T5 sequence: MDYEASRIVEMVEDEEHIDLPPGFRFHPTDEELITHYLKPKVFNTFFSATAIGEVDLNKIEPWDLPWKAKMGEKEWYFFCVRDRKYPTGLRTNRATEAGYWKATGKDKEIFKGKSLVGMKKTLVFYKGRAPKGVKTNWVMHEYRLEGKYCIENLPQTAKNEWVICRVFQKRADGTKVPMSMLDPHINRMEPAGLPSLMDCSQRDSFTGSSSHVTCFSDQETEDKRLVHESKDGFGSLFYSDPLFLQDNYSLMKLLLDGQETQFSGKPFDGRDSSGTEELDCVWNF

Row | Sequence | binding signal [E-score]
93 | CACGGAAC | 0.425
94 | GTAACGTA | 0.467
95 | CTTGACTC | 0.0114
96 | AAAAAGTC | 0.037
97 | GATGCGTA | 0.416
98 | AAGGTCAG | -0.0705
99 | AATGGTCA | -0.0166
100 | CTTGACCA | 0.00912
101 | ATGCCGTG | 0.443
102 | ATTGGTCA | 0.105

— article PMC4081100
